Source: the supplement of paper PMC10338343
± gives the standard deviation. Whole data set: some 3,000 sequences, median “pre-steady-state target cleavage rate” near 0.0079, cut for the highest 2% near 0.2. The entries are a selection whose mix differs from that of the whole data set.

System: MILI (PIWIL2) piRISC loaded with piRNA #2 (26 nt)
Experiment: pre-steady-state target cleavage rate (min^-1); MIWI and MILI are mouse PIWI proteins and EfPiwi is from a freshwater sponge; tags in brackets are library labels; higher = faster piRNA-guided slicing of the target
Conditions: guide: piRNA #2 5'p-UUAGGUAACCCAGUAGAUCCAGAGGA; auxiliary factor: 500 nM mouse GTSF1
In short: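 The pre-steady-state cleavage rate was calculated from a burst-and-steady-state fit. Data came from Cleave-'n-Seq, in which […] transcribed, DNA-blocked target RNA library was mixed with 1 nM active affinity-purified piRISC carrying one synthetic guide, with or without 500 nM GTSF1 partner protein, in HEPES–potassium acetate buffer at 33 °C for 0–8 or 0–960 min. Uncleaved targets were sequenced and normalised to depth and to weakly complementary targets, three trials were pooled, and k3 was capped at 0.0001 min^-1.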
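Further: 1 nM active piRISC with 0.1 nM target library at 33 °C single turnover.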

Sequence | pre-steady-state target cleavage rate
CUUAAGCUCUGGAACUACUGCGUUACCUAA | 0.0134 ± 0.0072
CUUAAGGUCUGGAUCGACUGGGUUACCUAA | 0.0608 ± 0.014
CUUAAGGAGACCUACUACUGGGUUACGAUA | < 0.0001
CUUAAGCUCUGGUUCUACUGGGUUACCUUA | 0.126 ± 0.036
CUUAAGGUCUGGAUCUACUGGGUCUACCUAA | 0.0262 ± 0.0079
CUUAAGGUCUGGAUCUACUGGGUGACCUAA | 0.0186 ± 0.0078
CUUAAGCUCACGAUCUACUGGGUUACCUAA | 0.102 ± 0.029
CUUAAGGACUAGAUCUACUGGGUUACCUAA | 0.0231 ± 0.013
CUUAACCUCUGGAUCUACUGCGUAACCUAA | 0.00792 ± 0.0051
CUUAAGGUCUGGAUCUAGUGGGUUACCAAA | 0.0567 ± 0.013
CUUAUCCUUCUGGAUCUACUGGGUUACCUAA | 0.102 ± 0.021
CUUAAGCUCUGGAUCAACUGCGUUACCUAA | 0.0057 ± 0.005
CUUAAGCUCGUGGAUCUACUGGGUUACCUAA | 0.0285 ± 0.016
CUUAUCCUCUGGAUCUUCAGGGUUACCUAA | 0.0802 ± 0.011
CUUAUCCUCUGGAUCUAGUGGGUUACCUAA | 0.0881 ± 0.014
CUUAACCAGUGGAUCUACUGGGUUACCUAA | 0.0864 ± 0.016
CUUAAGGUCUGGAUCUUCUGCGUUACCUAA | 0.00525 ± 0.0044
CUUAAGGACUCGAUCUACAGGGUUACCUAA | 0.0295 ± 0.0084
CUUAAGGAGUGGAUCUACUGGGUUUCCUAA | 0.018 ± 0.0074
CUUAAGCUCUGGAUCUACUUGGGUUACCUAA | < 0.0001
CUUAACCUCUGGAUACUACUGGGUUACCUAA | 0.0873 ± 0.022
CUUAAGCUCAUGGAUCUACUGGGUUACCUAA | 0.0484 ± 0.014
CUUAUCCUCUGGAUCUACUGGGUUACGAAA | 0.0846 ± 0.019

Sequence | pre-steady-state target cleavage rate
CUUAAGGACUGGAUCUACUGGGUAUACCUAA | 0.0248 ± 0.016
CUUAAGCUCUGGAUCUACUGGGUAUACCUAA | 0.0713 ± 0.015
CUUAAGGUCUGAAUCUACUGGGUUACCUAA | 0.0377 ± 0.0095
CUUAAGGAGAGGAUCUACGGGGUUACCUAA | 0.0142 ± 0.0046
CUUAUCCUCUGCAUGUACUGGGUUACCUAA | 0.0877 ± 0.013
CUUAAGCUCUUGAUCUACUGGGUUACCUAA | 0.102 ± 0.018
CUUAAGCUCUGGAUGUACUGGGUUACCUAA | 0.0646 ± 0.016
CUUAUCCUCUGGAUCGACUGGGUUACCUAA | 0.0789 ± 0.0097
CUUAAGGACUGGAUCUACAGGGUUACCUUA | 0.0366 ± 0.0097
CUUAACCUCUCGAUCUACUGGGUUACGUAA | 0.052 ± 0.017
CUUAAGGAGAGGCUCUACUGGGUUACCUAA | 0.0144 ± 0.0069
CUUAAGCUCUGGAUCUACUGGGUUACCAAA | 0.101 ± 0.021
CUUAUCCUCUGGAUAUACUGGGUUACCUAA | 0.126 ± 0.018
CUUAACCUCUGGUUCUACUGGCUUACCUAA | 0.0095 ± 0.0042
CUUAAGGAGACCUAGAUGUGCCUUACCUAA | < 0.0001
CUUAAGGUCUGGAUACUACUGGGUUACCUAA | 0.0257 ± 0.011
CUUAAGCACUGGAACUACUGGGUUACCUAA | 0.0798 ± 0.021
CUUAAGGUGUGGAUCUACUGGGUUACCUAA | 0.055 ± 0.013
CUUAACCUCUGGAUCUACUGGCAUACCUAA | < 0.0001
CUUAACCACUGGAUCUACUGGGAUACCUAA | 0.0188 ± 0.0073
CUUAACCUCUGGAUCUACUGGGUUGCCUAA | 0.1 ± 0.025
CUUAAGCUCUCGAUGUACUGGGUUACCUAA | 0.127 ± 0.022
CUUAACCUCUGGAACUACAGGGUUACCUAA | 0.081 ± 0.016
